# Measurements from PubChem BioAssay (NCI).
# More than one record can exist for a structure, and the calls need not agree.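 Activity criterion: percent growth below 10, measured after cells in 96-well plates were exposed to a single compound concentration for 48 hours.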 For part of its entries the source gives two or more results. This list holds those alone. The source may hold further records. These are repeated runs of one drug, at the concentration stated with the values; each value is one run. Marks such as (2×) count equal records among those shown.
# What was measured:
# A549/ATCC NSCLC = assay: NCI-60 one-dose screen, 48 h (100 = growth as untreated, 0 = no growth, -100 = all killed); settings: 25 µM
# COLO 205 colon = assay: as above; settings: 0.25 µM
smiles,measurement,setting,value
COc1cccc2c1C(=O)c1c(O)c3c(c(O)c1C2=O)C[C@@](O)(C(=O)CO)C[C@@H]3OC1CC(N)C(O)C(C)O1 (stereo not given in full),growth,A549/ATCC NSCLC; runs of 1995,"active: 6.05, 7.09, 2.13, 3.9, 1.6, -17.4, 8.65, -1.22, -4.4, 6.15, 2.09, 6.74, 5.61, 6.6, 2.18, 0.937, 7.8, -24.4, -2.31, -6.33, 2.31, 9.76, 5.42, 1.8, 6.86, 8.12, 3.06, 6.16, 6.94, 3.44, 2.26, 6.67% and inactive: 54.8, 12.3, 11.5, 16.9, 10.7, 11.3, 11.9%"
same,growth,A549/ATCC NSCLC; runs of 1996,"active: 5.85, 8.32, -2.23, 5.33, 7.77, 6.43, -19.2, -21.5, 4.71, -22.9, 5.05, 7.74, 3.07, 6.52, -11.4, 9.7, 5.21, 7.03, -16.4, 0.847, -19.5, 6.7, 8.26, 7.55, 2.84, 8.84, 6.4, 6.95, 1.9, 6.46, -17.7, 6.41, 0, -5.69, 0.359, 8.01, 5.73, 5.87, -41.8, 7.54% and inactive: 12.2, 10.5, 10.7, 13.4, 15.5, 10.2, 12.5, 12.3, 15.6%"
same,growth,A549/ATCC NSCLC; runs of 1997,"active: 8.53, -3.31, 1.25, 6.03, 8.72, 0.802, 9.35, 6.99, 3.81, 3, 9.37, -4.84, -25.5, 2.55, 1.46, -25.2, 4.64, 3.33, 1.15, 1.56, 2.64, 6, 1.1, 7.74, -14.9, 6.67, 4.03, -20.7, 2.99, -42, 1.66, 3.26, 2.9, -5.02, 6.35, 3.93, 3.2, 2.12, 9.04, -9.47% and inactive: 13.1, 13.6, 97.9, 12.4, 10.9, 20.3%"
same,growth,A549/ATCC NSCLC; runs of 1998,"active: -41, -1.09, 7.37, -9.22, 5.38, 9.23, 0, 6.5, -7.9, -48.4, 5.75, -33.9, 2.54, -29.2, 3.57, -2.1, -11.5, -19.1, 3.71, -3.8, -20.9, 1.52, -8.73, -25.3, 0.803% and inactive: 13.7%"
same,growth,A549/ATCC NSCLC; runs of 1999,"active: 0.966, 2.64, -4.18, 2.03, -7.99, -37.2, -81.8, -28.3, -14, 0.277, 3.11, -16.9, -100, -64, -60.2% and inactive: 30.9%"
same,growth,A549/ATCC NSCLC; runs of 2000,"active: 0.543, -100, -19.3, -49.2%"
same,growth,COLO 205 colon; runs of 2006,"inactive: 42.2%, 35.3%"
same,growth,COLO 205 colon; runs of 2007,"inactive: 43.7 (2×), 55.6 (2×), 47.4, 45.2, 50, 48.4, 58.8, 49.5, 68.6, 54.9, 50.7, 49.8 (2×), 57.2, 46.7, 32.4, 51.5 (2×), 55, 56.9, 90.9, 39.8, 49.6, 54.2, 58.6, 70, 53.8, 54.5, 55.4 (2×), 51.4, 44.9, 35.4, 40.2, 36.9, 36.3, 66.9% and active: -17.1%"
same,growth,COLO 205 colon; runs of 2008,"inactive: 51.8 (2×), 59.1, 45.6, 39.1, 71.4, 57.4, 59.2, 60.9, 51.6, 49.2, 58.2 (3×), 40.7, 41.1, 41.4, 35.3, 28.3, 33, 48.5, 41.2, 34, 50.4, 49.5, 113, 47.2, 40.2, 52.7, 33.2, 69.9, 30.4, 56.9, 56.1, 49.6, 53.6, 46, 65.9, 64.9, 46.3, 48.4, 60.7, 65.4, 68.3, 41, 43, 56.7, 28.7, 51.1, 46.6, 48.6, 43.7%"
same,growth,COLO 205 colon; runs of 2009,"inactive: 57.3, 62.2, 43.4, 43.1, 35.1, 43.7, 53.2, 66.6, 58.4, 53, 55.2 (2×), 66.3, 49.4, 59.5, 53.8 (2×), 54.1 (2×), 32.3, 25.1, 48.3, 49.2, 51.2, 36, 43.8, 59.7 (2×), 50.2, 51.8, 39.3, 42.8, 57.7 (3×), 50 (2×), 51.4, 75.1, 58.1, 34.9, 53.7, 46.9 (2×), 40.9, 48.4, 46.2, 44.3, 54.6, 59.2 (2×), 56, 57.8, 52.9, 69.6, 51.3, 47.4, 51.9, 43.3, 46.5, 44.7%"
same,growth,COLO 205 colon; runs of 2010,"inactive: 57.2, 58.2, 57.7, 42.4, 54, 55.2 (2×), 51.8, 48.7 (2×), 64.3, 50.2 (2×), 53.2, 51.9 (2×), 57.8, 49.8, 46.1, 55.9, 41.3, 52.8, 53.6 (2×), 44.3, 43.7, 50, 41.4, 53 (2×), 44.1, 51.5, 39, 62.1, 54.5, 48.6, 59, 52.9, 47.5, 45.6, 48.9, 55.4, 51.4, 52.7, 53.5, 45.5, 60.9, 61.3, 54.4, 57.4, 61.4%"
same,growth,COLO 205 colon; runs of 2011,"inactive: 51.4, 49.8, 51.3, 51.8, 57.6, 48.8, 46.9, 46.5, 54.4, 52.9, 55.9, 60 (2×), 55.6, 28, 55.7 (2×), 72.5, 58.3, 55, 60.9, 58.7, 61.7, 57.3 (2×), 56.5, 53.2, 63.4, 53.3, 31.5, 48.4, 43.1, 47.3, 37.1 (2×), 50.1, 50, 42.3, 52, 44.4, 39.3, 59.6, 42.6, 36.9, 45.1, 61.8, 62.7, 60.3, 48.5, 43, 46.4, 49.5, 60.5, 58.5, 53.8%"
same,growth,COLO 205 colon; runs of 2012,"inactive: 48.8 (3×), 38.7, 42.3 (2×), 44.2 (2×), 60.2 (2×), 51.8, 53.1, 56.2 (2×), 57.9 (2×), 47.9, 51.2 (2×), 46.9, 46 (3×), 37.3, 32.9, 39.1, 48 (2×), 51.3, 43.2, 52.7, 50.5, 46.2, 53, 48.3, 56.5, 53.3, 47.5, 59.7, 51.4, 45.1, 56.9 (2×), 65.5, 59.4, 52.6, 52, 61.3, 68.9, 56, 55.4, 65.2, 70.8, 50.4, 39.8, 62.1, 55.6, 52.3, 57.4, 51, 40.2, 42.8, 58.1, 46.6, 34.2, 36.4, 46.4, 39.5%"
same,growth,COLO 205 colon; runs of 2013,"inactive: 41.5, 48.6, 39.4, 40.4, 62.8, 58.7, 52, 53.7, 53, 58.4, 54.6, 49.6 (2×), 56.8 (2×), 65.4 (2×), 49.5, 50.7 (2×), 50.2 (2×), 51.5, 60.1 (3×), 59.8 (2×), 66.2, 56.5, 63.4 (2×), 57.5, 68.9, 71.2, 64.1, 66.7, 51.6, 61, 59, 52.6, 63.5, 55.4 (2×), 56.7, 61.5, 58.9 (2×), 52.9, 55.6, 63.9, 47.5, 44.6, 51, 41.7, 51.4, 54.2, 59.6, 66.1, 55.7, 53.2 (2×), 57.2, 39.1, 40.7, 41.1, 42.5, 43.1, 42.6, 49.7, 53.8, 54.1, 58.6, 47.3, 54.5, 38.9, 47.1, 47.2, 51.3, 46%"
same,growth,COLO 205 colon; runs of 2014,"inactive: 51.6, 62.5, 43, 37.4, 35.5, 45.5 (4×), 53.2, 39, 37.2 (3×), 32.9, 30.1, 55, 27.9, 47.4 (2×), 37.6 (2×), 35.7, 38.5 (2×), 47.5 (4×), 56.1, 40.6, 42, 46.1, 47.6 (2×), 46.6, 50.2, 44.4, 42.2, 51.3, 51.9, 44.8 (2×), 47.3, 55.2, 55.6 (2×), 49.8, 51.2, 51, 57, 55.7, 48.2, 48.4 (2×), 46.3 (2×), 46.4, 57.2, 42.1 (2×), 33.4, 40.7, 44.2, 40, 38, 39.5, 43.1 (2×), 42.3, 46.2, 36.8, 48.6 (2×), 48.3, 43.8, 37.3, 38.2, 34.3, 40.8, 35.8%"
